Experimental data published in PubChem BioAssay AID1347428 (National Center for Advancing Translational Sciences (NCATS), 2020).
Out of some 91,000 compounds screened, about 290 (0.32%) were called active. The shares of active, inactive and inconclusive entries below differ from those in the screen. Calls come from the whole dose curve; as a rule, active = well fitted inhibition curve with a large enough effect; inconclusive = small, poorly fitted or top-dose-only effect; inactive = no such curve, though single readings can be large or run the other way. Potencies of inconclusive entries are doubtful fits and often do not repeat.

Target: Single-stranded DNA cytosine deaminase (Homo sapiens) (UniProt Q9GZX7)
Sequence of UniProt Q9GZX7 (Q9GZX7 whole entry, looked up): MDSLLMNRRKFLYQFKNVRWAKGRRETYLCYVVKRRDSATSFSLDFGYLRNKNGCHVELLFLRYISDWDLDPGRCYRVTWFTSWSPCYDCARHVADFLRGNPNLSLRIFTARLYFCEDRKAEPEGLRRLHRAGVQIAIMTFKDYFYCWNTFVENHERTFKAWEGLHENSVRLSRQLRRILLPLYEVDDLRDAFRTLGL
Experiment: Primary qHTS assay for inhibitors of Activation Induced Cytidine Deaminase (AID): AID signal; note: nearly all actives have a fitted effect of over 25% in size
Details: AID deamination FRET fluorescence, UDG-coupled, 4 h; activity change, negative = inhibition: at 115 µM (top of the series)
% is set by controls: 0 for no effect and ±100 for the full control effect; potency is the fitted concentration of half-maximal effect; tags give direction and shape of the fitted curve.

SMILES	Potency	activity change, negative = inhibition
COc1ccc(CCCc2nnc(SCC(=O)Nc3cccc(C)c3)o2)cc1	inconclusive: 35.5 µM [inhibitor, single point]	–
COc1cc(C=O)cc(Br)c1OC(=O)c1ccc(C)cc1	inconclusive: 50.1 µM [inhibitor, partial curve, poor fit]	–
O=C1CN(C(=O)COc2ccc(Cl)cc2)C(c2ccccc2)c2cc(Br)ccc2N1 (configuration not stated)	inconclusive: 100 µM [inhibitor, partial curve, poor fit]	–
CCOc1ccc(-n2c(/C=C/c3cccc(F)c3)nc3cc(OC)c(OC)cc3c2=O)cc1	inconclusive: 44.7 µM [inhibitor, partial curve, poor fit]	–
Cc1c(C(=O)NCc2ccccc2Cl)sc2nc3n(c(=O)c12)CCCCC3	inconclusive: 10 µM [inhibitor, full curve, poor fit]	–
CCOc1ccc(NC(=O)C2CC(=O)NC(=Nc3ccc(Cl)c(Cl)c3)S2)cc1 (configuration not stated)	–	inactive: -11.9%
Cc1ccc(-c2ccc(=O)n(CC(=O)Nc3ccc(C)cc3Cl)n2)cc1	inconclusive: 44.7 µM [inhibitor, partial curve, poor fit]	–
CCOC(=O)c1ccc(-n2c(CCC(=O)O)ccc2-c2ccc(Br)cc2)cc1	inconclusive: 79.4 µM [inhibitor, partial curve, poor fit]	–
Cn1nc(C(=O)OCC(=O)Nc2ccc(OCc3ccccc3)cc2)c2ccccc2c1=O	–	inactive: -11.1%
COc1ccc(CC(=O)Nc2sc3c(c2C(=O)Nc2cccc(Cl)c2)CCCCC3)cc1	inconclusive: 44.7 µM [inhibitor, partial curve, poor fit]	–
CCN(CC(=O)Nc1ccccc1OC)C(=O)c1ccc(-c2cc(Cl)ccc2Cl)o1	–	inactive: -13.5%
CC(C)C(=O)N(Cc1ccc(-c2cccc(Cl)c2)o1)C1CCS(=O)(=O)C1 (configuration not stated)	–	inactive: -2.68%
COc1ccc(OC)c(CCNC(=O)c2c(C)nn(-c3ccc(F)cc3)c2-n2cccc2)c1	inconclusive: 11.2 µM [inhibitor, partial curve, poor fit]	–
COC(=O)c1ccc(OCC2c3cc(OC)c(OC)cc3CCN2C(=O)C(C)C)cc1 (configuration not stated)	inconclusive: 100 µM [inhibitor, single point]	–
COc1ccc(C(=O)NCCc2sc(-c3ccc(Cl)cc3)nc2C)c(OC)c1	inconclusive: 22.4 µM [inhibitor, full curve, poor fit]	–
C=Cc1ccc(CN2C(=O)N(c3ccc(CC)cc3)S(=O)(=O)c3ccccc32)cc1	inconclusive: 89.1 µM [inhibitor, single point]	–
Cc1ccc(Cl)cc1N1CCN(C(=O)c2cc(S(=O)(=O)N3CCCC3)cn2C)CC1	inconclusive: 89.1 µM [inhibitor, single point]	–
